Data published in article PMC4336329 (PLoS ONE, 2015).
The campaign covered roughly 310,000 compounds. About 2,200 (0.71%) showed an effect of 50% or more. Effects have a minus sign here. Some of the results follow.

Each compound was assayed against human ether-à-go-go-related gene (hERG) potassium channel (human, UniProt Q12809) (assay: primary screen, population patch clamp on CHO cells stably expressing hERG).
human ether-à-go-go-related gene (hERG) potassium channel, sequence (Q12809 whole entry, looked up): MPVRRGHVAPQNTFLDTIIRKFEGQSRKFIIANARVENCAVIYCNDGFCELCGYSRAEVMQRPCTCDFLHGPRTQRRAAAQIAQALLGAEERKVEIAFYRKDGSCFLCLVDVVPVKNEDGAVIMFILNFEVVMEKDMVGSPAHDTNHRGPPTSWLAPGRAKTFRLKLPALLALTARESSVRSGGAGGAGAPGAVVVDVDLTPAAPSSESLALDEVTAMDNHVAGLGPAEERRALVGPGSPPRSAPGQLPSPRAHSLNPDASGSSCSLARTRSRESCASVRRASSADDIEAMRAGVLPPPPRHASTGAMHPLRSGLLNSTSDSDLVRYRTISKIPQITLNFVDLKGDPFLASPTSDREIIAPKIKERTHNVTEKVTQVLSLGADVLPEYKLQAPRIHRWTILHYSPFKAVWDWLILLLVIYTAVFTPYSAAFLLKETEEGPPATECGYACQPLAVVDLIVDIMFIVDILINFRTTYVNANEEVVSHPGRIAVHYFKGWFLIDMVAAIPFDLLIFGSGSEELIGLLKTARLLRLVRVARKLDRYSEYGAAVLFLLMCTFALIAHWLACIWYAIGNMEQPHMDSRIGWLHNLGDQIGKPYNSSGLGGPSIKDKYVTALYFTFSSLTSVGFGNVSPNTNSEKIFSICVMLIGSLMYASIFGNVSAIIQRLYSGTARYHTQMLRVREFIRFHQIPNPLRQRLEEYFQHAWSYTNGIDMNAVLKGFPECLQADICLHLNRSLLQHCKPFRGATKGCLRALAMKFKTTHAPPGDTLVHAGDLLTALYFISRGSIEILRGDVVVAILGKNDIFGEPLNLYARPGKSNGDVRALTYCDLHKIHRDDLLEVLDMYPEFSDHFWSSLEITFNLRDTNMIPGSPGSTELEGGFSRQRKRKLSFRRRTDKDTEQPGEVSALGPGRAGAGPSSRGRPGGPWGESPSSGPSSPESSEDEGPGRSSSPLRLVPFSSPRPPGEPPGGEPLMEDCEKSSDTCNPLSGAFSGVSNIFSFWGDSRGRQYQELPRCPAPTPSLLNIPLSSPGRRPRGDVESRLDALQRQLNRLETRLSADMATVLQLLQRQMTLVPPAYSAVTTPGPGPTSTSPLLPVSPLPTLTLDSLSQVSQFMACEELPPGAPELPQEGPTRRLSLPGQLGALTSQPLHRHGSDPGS

| Structure (SMILES) | hERG current change (%, negative = inhibition) at 1uM [%] |
| --- | --- |
| CC(C)CNC(=O)NC(=O)COC(=O)c1cc(F)cc(F)c1 | 4.35 |
| CCCCNCc1ccc(SC)cc1.Cl | 7.14 |
| CN(C)c1ccc(CNC(=O)C2CCC(CNc3c(N4CCCCC4)c(=O)c3=O)CC2)cc1 (centres unmarked) | 13.8 |
| CC(=O)N1c2ccc(S(=O)(=O)N3CCC(C(=O)Nc4ncccc4C)CC3)cc2CC1C (centres unmarked) | 21 |
| Cc1ccc(N2NC(=O)/C(=C/C=C/c3ccco3)C2=O)cc1C | 23.3 |
| Cc1cc(C)c(C#N)c(SCC(=O)NN2CC(=O)N(c3ccccc3F)CC2=O)n1 | 6.03 |
| O=C(C1CCN(S(=O)(=O)c2c(Cl)cccc2Cl)CC1)N1CCCCCCC1 | 3.01 |
| O=C1OCCN1c1c(-c2ccccc2)c(-c2cccs2)nc2c(-c3ccccc3)cccc12 | 9.44 |
| CN(C)/N=C/C=C1\CC/C(=C\c2ccc(Br)cc2)C1=O | 3.17 |
| COCCCNC(=O)C1CC(=O)N(C2CCCC2)C1 (centres unmarked) | 12.2 |
| O=C(N/N=C/c1c(O)n(C2CC2)c(=S)[nH]c1=O)c1ccccc1 | 28.7 |
| COCCCN1C(=O)C(=O)/C(=C(/O)c2ccccc2)C1c1ccc2c(c1)OCO2 (centres unmarked) | 12.7 |
| CC(=O)OC(COC1C[C@@H]2CC[C@@]1(C)C2(C)C)C[N+]1(C)CCCCC1.[I-] (some centres unmarked) | 9.41 |
| Cc1[nH]nc2c1C(c1cccs1)C(C#N)=C(N)O2 (centres unmarked) | 10.5 |
| O=C(O)c1ccccc1C(=O)c1ccc2c(c1)CCC2 | 14.9 |
| CCOc1ccc(CCN2C(=O)c3ccc(C(=O)O)cc3C2=O)cc1OCC | 8.73 |
| O=C(Nc1ccc(C(=O)O)cc1)/C(=C\C=C\c1ccccc1)NC(=O)c1ccc(Br)cc1 | 14.1 |
| Cc1cc(C)c2nc(SCC(=O)NCCC3=CCCCC3)cc(C)c2c1 | 9.04 |
| CNc1nc(NN)nc(Nc2ccccc2)n1 | 14.9 |
| CN1C(=O)c2ccccc2C(C(=O)NCc2ccco2)C1c1c[nH]c2ccccc12 (centres unmarked) | -3.31 |
| Cc1cccc(-n2c(C)nc3c(cnn3-c3ccc(F)cc3)c2=O)c1 | 7.93 |
| COc1ccc(NC(=S)N2CCN(S(=O)(=O)c3ccccc3)CC2)cc1OC | 10.8 |

| Structure (SMILES) | hERG current change (%, negative = inhibition) at 1uM [%] |
| --- | --- |
| CC(C)C(OC(=O)c1ccco1)C(=O)NCc1ccc2c(c1)OCO2 (centres unmarked) | 2.57 |
| CCCCC(CC)C(=O)NCCCN1CCN(CCCNC(=O)C(CC)CCCC)CC1 (centres unmarked) | 3.41 |
| CCN(CC)c1ccc(NC(=O)CSc2nc(C)cc(=O)[nH]2)cc1 | 11.5 |
| Cc1cc([N+](=O)[O-])ccc1NC(=S)NC(=O)C(c1ccccc1)c1ccccc1 | 0.321 |
| COc1ccc(NC(=O)c2sc(N)nc2-c2ccccc2)cc1 | 2.98 |
| C#CCOCCOCCOCCNc1nc(N2CCN(C(=O)[C@H](CCC(=O)O)n3cc(C(N)[C@H](C)CC)nn3)CC2)nc(N2CCN(C(=O)[C@H](Cc3ccc(O)cc3)n3cc(C(N)[C@H](C)CC)nn3)CC2)n1.Cl (some centres unmarked) | 16.2 |
| CC(=O)NC(CCS(C)(=O)=O)C(=O)Nc1ccccc1Cl (centres unmarked) | 11.3 |
| CCCN(CCC)C(=O)C(CCC(=O)O)NC(=O)c1ccccc1 (centres unmarked) | 2.94 |
| C/C(=N/NC(=S)Nc1ccccc1)c1ccc2c(c1)OCO2 | 13.8 |
| CCCOc1ccc(-c2c(C(=O)N/N=C/c3ccccc3)nnn2-c2nonc2N)cc1 | 4.36 |
| O=C(O)Cc1csc(-c2ccccc2)n1 | 12.6 |
| O=C(Cc1ccc(S(=O)(=O)N2CCCCC2)s1)Nc1cccc2ccccc12 | 12.8 |
| CCOc1ccccc1-c1nc2c([nH]1)c(=O)n(C)c(=O)n2C | 10.7 |
| CCOc1cccc(C2/C(=C(/O)c3ccc4c(c3)CC(C)O4)C(=O)C(=O)N2Cc2ccncc2)c1 (centres unmarked) | 27.6 |
| COc1cccc(-c2cc3nc4c(c(N5CCC6(CC5)OCCO6)n3n2)CCC4)c1 | 13.5 |
| CS(=O)(=O)N(CC(=O)N1CCN(c2cccc(Cl)c2)CC1)c1cccc(F)c1 | 1.97 |
| O=[N+]([O-])c1ccc(O)c(C=Nc2cccc3ccccc23)c1 | 11.9 |
| Oc1c(C=Nc2cccc3cccnc23)sc2ccccc12 | 13.4 |
| COc1cccc(/C=C2\SC(=S)N(N3CCOCC3)C2=O)c1OC | 6.61 |
| Cc1ccccc1N(CC(=O)NC1CCCCC1)C(=O)CCC(=O)Nc1nccs1 | 10.9 |
| COc1ccc(Oc2nccc(OC)c2C#N)cc1 | 3.18 |
| COc1ccc(C(=O)OCC(N)=O)cc1[N+](=O)[O-] | 3.78 |
